PubChem BioAssay (NCI)
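How tested: cells in 96-well plates exposed to compound for 48 hours at five concentrations. GI50 = concentration required for 50% inhibition of growth.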 For part of its entries the source gives two or more results. This list holds those alone. An entry can have further records. The tests behind the records often covered other concentration ranges, which the source does not state; some values may only mark the edge of a range.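 TGI: concentration producing complete growth inhibition.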

Legend:
Test in all cases: NCI tumour cell line growth inhibition, 48 h
786-0 renal = system: 786-0 renal
ACHN renal = system: ACHN renal
HOP-62 NSCLC = system: HOP-62 NSCLC
KM20L2 colon = system: KM20L2 colon
LOX IMVI melanoma = system: LOX IMVI melanoma
MOLT-4 leukemia = system: MOLT-4 leukemia
NCI-H226 lung = system: NCI-H226 lung
NCI/ADR-RES ovarian = system: NCI/ADR-RES ovarian
OVCAR-5 ovarian = system: OVCAR-5 ovarian
P388 leukemia = system: P388 leukemia
RPMI-8226 leukemia = system: RPMI-8226 leukemia
SF-295 CNS = system: SF-295 CNS
SF-539 CNS = system: SF-539 CNS
SNB-19 CNS = system: SNB-19 CNS
SNB-75 CNS = system: SNB-75 CNS
SR leukemia = system: SR leukemia
U251 CNS = system: U251 CNS
UO-31 renal = system: UO-31 renal

| SMILES | TGI (786-0 renal) | TGI (ACHN renal) | TGI (HOP-62 NSCLC) | TGI (KM20L2 colon) | TGI (LOX IMVI melanoma) | TGI (MOLT-4 leukemia) | TGI (NCI-H226 lung) | TGI (NCI/ADR-RES ovarian) | TGI (OVCAR-5 ovarian) | TGI (P388 leukemia) | TGI (RPMI-8226 leukemia) | TGI (SF-295 CNS) | TGI (SF-539 CNS) | TGI (SNB-19 CNS) | TGI (SNB-75 CNS) | TGI (SR leukemia) | TGI (U251 CNS) | TGI (UO-31 renal) | GI50 (LOX IMVI melanoma) |
| --- | --- | --- | --- | --- | --- | --- | --- | --- | --- | --- | --- | --- | --- | --- | --- | --- | --- | --- | --- |
| COc1cccc2c1C(=N)c1c(O)c3c(c(O)c1C2=O)C[C@@](O)(C(C)=O)C[C@@H]3OC1CC(N)C(O)C(C)O1 (stereo not given in full) | 545 nM and 10.2 µM | 1.41 µM and 14.6 µM | 634 nM, 338 nM, 10.9 µM | 0.65 nM, 5.15 µM, 6.51 µM | 9.15 nM, 1.35 µM, 1.92 µM | 64.5 nM [mean of 4 tests] and 7.49 nM, 257 nM [mean of 5 tests] | 4.99, 712, 884, 125 nM | 0.424 nM and 21.8 µM | 0.55 nM, 4.74 µM, 2.66 µM, 2.05 µM | 0.646 nM and 655 nM | 320 nM [1 test] and 1.05 µM [mean of 3 tests] and 3.75 µM [mean of 5 tests] | 0.541 nM, 1.84 µM, 821 nM, 11.5 µM | 59.4 nM [1 test] and 1.13 µM [mean of 4 tests] and 1.56 µM [mean of 5 tests] | 9.75 nM, 4.31 µM, 3.23 µM, 2.17 µM | 79.8 nM [1 test] and 2.57 µM [mean of 3 tests] and 1.37 µM [mean of 5 tests] | 8.67 nM and 125 nM | 0.372 nM, 8.45 nM, 2.77 µM, 675 nM, 114 nM | 9.32 nM, 30.8 µM, 3.15 µM | – |
| C[CH2][Ge]1([CH2]C)[CH2]CC2(CCN(CCCN(C)C)C2)C[CH2]1 | – | – | – | – | 3.45 µM [mean of 3 tests] and 316 nM [mean of 4 tests] | – | – | – | – | – | – | – | – | – | – | – | – | – | 1.83 µM [mean of 3 tests] and 38.1 nM [mean of 4 tests] |
